Reference: PubChem BioAssay AID1508623 (National Center for Advancing Translational Sciences (NCATS), 2021)
Hit rate of the full screen: of about 48,000 compounds, about 450 (0.94%) were called active. Inconclusive results (about 19%) are left out. Calls come from the whole dose curve; as a rule, active = well fitted inhibition curve with a large enough effect; inconclusive = small, poorly fitted or top-dose-only effect; inactive = no such curve, though single readings can be large or run the other way. The list shows a part of the results.

Experiment: Primary qHTS for Identification of Small Molecule Inhibitors of Huntingtin Promoter Activity; note: nearly all actives have a fitted effect of over 50% in size
Settings: HEK293 HTT promoter firefly luciferase reporter (activity 0% = vehicle and -100% = no light), 24 h; series mostly up to 57.5 µM; activity change, negative = inhibition: at the top concentration
Method in brief: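 HEK293 cells carrying firefly luciferase reporters were seeded at 2,500 per well in Opti-MEM and cultured for 24 h. They were then treated with compounds at up to 57.5 uM final for 24 h at 37 degrees C before Dual-Glo luminescence readout.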

Activity change, negative = inhibition, inactive:
O=C(NCc1ccco1)c1ccc(Cn2c(SCc3ccccc3F)nc3cccnc32)cc1 -24.1%
CN(C)CCC=C1c2ccccc2C=Cc2ccccc21
O=C1c2cccc(O)c2C(=O)c2c(O)cc(CO)cc21 12.6%
CCN1CCN(c2ncnc3c2cnn3-c2cccc(C)c2)CC1 62.2%
O=C(CSc1ncccc1C(=O)Oc1ccccc1Cl)Nc1ccccc1Cl 6.65%
CN(C)c1ccc(CNC(=O)C2COc3ccccc3C2)cc1 (configuration not stated) 46%
O=C(NC1CCCCC1)c1ccc2c(c1)N(Cc1ccccc1Cl)C(=O)c1ccccc1S2 -2.2%
CN(C)CCc1c[nH]c2ccc(C[C@H]3COC(=O)N3)cc12
COc1ccc(CCNC(=O)Cn2cc(S(=O)(=O)Cc3ccc(F)cc3)c3ccccc32)cc1OC -24%
CCOc1ccc(C(=O)c2oc3ccccc3c2NC(=O)c2cc(-c3ccc(C)cc3)on2)cc1 -3.55%
Cc1ccc(-c2cc(C(F)(F)F)n3ncc(-c4ccccc4)c3n2)cc1 -4.01%
O=C(Nc1cccc(F)c1)c1oc2ccccc2c1NC(=O)C12CC3CC(CC(C3)C1)C2 -12.9%
O=S(=O)(c1ccccc1)c1nnn2c1nc(NCc1ccccc1)c1cc(Cl)ccc12 -11.4%
CC(C)c1ccc(NC(=O)CCS(=O)(=O)c2ccc3c(c2)CC(=O)N3C)cc1 -1.98%
Cc1nc2nc(C)c(CCC(=O)NCc3ccccc3)c(C)n2n1 -11.6%
COc1cccc(Cc2nc3ccccc3nc2SCC(=O)Nc2cc(OC)ccc2OC)c1 -17%
CCOc1ccccc1CNCCSc1nnnn1C -7.99%
CCOc1cc(-c2ccc(OC(=O)c3ccccc3)c(OC)c2)cc(=O)c2c(C)oc(C)c12 -1.87%
Cc1ccc(C2c3c(oc4ccccc4c3=O)C(=O)N2c2nnc(C)s2)cc1 (configuration not stated) -10.8%
O=c1c2sc3ccccc3c2n(Cc2ccccc2)c(=O)n1CCc1ccccc1 -2.03%
COc1ccc(C)cc1Nc1ncnc2c1c(-c1ccccc1)cn2-c1ccc(C)cc1 -24.6%
O=c1[nH]c(=O)n([C@H]2C[C@H](O)[C@@H](CO)O2)cc1F -18.5%
COc1ccc(OC)c2sc(N3CCN(C(=O)C4COc5ccccc5O4)CC3)nc12 (configuration not stated) 0.0158%
Cc1ccc(S(=O)(=O)C(CNC(=O)COc2ccccc2)c2ccco2)cc1 (configuration not stated) -27.3%
CCCN(CCC)C(=O)Cn1c(=O)n(CCCCCC(=O)NCc2ccccc2Cl)c(=O)c2sccc21 -6.68%
CC(C)CCNC(=O)C(Cc1ccccc1)NS(=O)(=O)c1ccc2c(c1)c(=O)n(C)c(=O)n2C (configuration not stated) -18%
Cc1cc(C)n(-c2nc3cc(Cl)ccc3nc2N2CCN(c3ccccc3F)CC2)n1 -28%
Cc1ccc(CNC(=O)CSc2nc3n[nH]c(C)c3c(=N)n2-c2ccccc2Cl)cc1 -2.98%
O=C(Nc1ccccc1C(=O)OCc1cc(=O)n2nc(C3CC3)sc2n1)c1cccc(F)c1 -2.21%
O=C(Nc1ccc(F)c(Cl)c1)N1CCC(CN2CCOCC2)CC1 -14.4%
Cc1nc2sccn2c(=O)c1S(=O)(=O)Nc1cc(C(F)(F)F)ccc1Cl -13.9%
Cc1ccccc1OCCCCn1nnc2sc3c(c2c1=O)CCC(C)C3 (configuration not stated) 3.01%
CCOCCCn1c(SCC(=O)Nc2ccccc2Cl)nc2c(oc3ccccc32)c1=O -14.1%
Cc1ccc(CCNC(=O)c2ccc3c(c2)nc2n3CCOC2)cc1 21.2%
CN1C(=O)C2(SCC(=O)N2c2ccc(Cl)cc2)c2ccccc21 (configuration not stated) -16%
COCCNC(=O)c1ccc(-c2nc(CS(=O)(=O)c3ccccc3)c(C)o2)cc1 25.7%
CCOc1ccc(NC(=O)CSc2nc3ccsc3c(=O)n2CCCCCC(=O)O)cc1 -0.25%
CCc1ccc(-n2nc3ccc(NC(=O)COc4ccc(OC)cc4)cc3n2)cc1 5.64%
CNNCc1ccc(C(=O)NC(C)C)cc1
COc1cccc(Cn2c(CNS(=O)(=O)c3ccc(Cl)s3)nc3cccnc32)c1 -19.1%
O=C(CSc1nc2c(c(=O)[nH]1)CN(Cc1ccc3c(c1)OCO3)CC2)Nc1ccccc1Cl -32.2%
Nc1ccc(C(=O)Oc2ccccc2)c(O)c1 10.5%
CC1=C(C(=O)Nc2ccccc2C)C(c2ccccn2)n2ncnc2N1 (configuration not stated) -2.95%
CCC(=O)C1=C(c2ccc(C)cc2)N(C(=O)CC)n2c(nnc2C2CCCCC2)S1 -19.5%
CC(=O)N1CCc2cc(S(=O)(=O)NC(CC(C)C)C(=O)Nc3cc(C)cc(C)c3)ccc21 (configuration not stated) -16.4%
CCOC(=O)c1nc(NCc2ccc(Cl)cc2)c2c(C)noc2n1 0%
Cc1c(Cl)cccc1NC(=O)CCOc1ccccc1 -11%
CCOc1ccc(Cn2c(=O)sc3ccccc32)cc1 -14.5%
Cc1cccn2c(=O)c3cc(C#N)c(=O)n(-c4nnc(SCc5ccc(Cl)cc5)s4)c3nc12 2.5%
Cc1cc(C)c2c(c1)c(C)cc1nnc(SCc3ccccc3C#N)n12 -10.2%
Cc1ccc(C)c(Cn2c(=O)c3c(nc4n3CCN4c3ccccc3)n(C)c2=O)c1 -5.08%
Cc1ccc(NC(=O)CN2C(=O)COc3ccc(S(=O)(=O)NC4CCCC4)cc32)cc1N(C)C -18.5%
CC(C)c1noc(-c2ccccc2OCC(=O)Nc2cccc([N+](=O)[O-])c2)n1 -3.46%
CCN(CC)S(=O)(=O)c1ccc2c(c1)c(=O)c(C(=O)N1CCN(c3cc(Cl)ccc3C)CC1)cn2C -1.79%
COc1cc(C2CC(=O)Oc3c2c(=O)[nH]c2ccccc32)cc(OC)c1OC (configuration not stated) -18.8%
Cc1ccc(-c2cc3nc(-c4ccccc4)cc(C(F)(F)F)n3n2)cc1 -18.7% [at 11.5 µM]
O=C(Oc1ccccc1F)c1nc(SCc2ccc(F)cc2)ncc1Cl 9.43%
CC(=O)N1CCc2cc(Br)cc(S(=O)(=O)CCC(=O)N3CCN(c4ccccc4Cl)CC3)c21 -1.7%
COc1ccc(-c2nc3scc(CCNS(=O)(=O)c4ccc5c(c4)OCCO5)n3n2)cc1 -22%
Cc1ccc(CN(C(=O)COc2cc(C)c(Cl)c(C)c2)c2ccccn2)o1 5.12%
CCOc1ccc(-c2c(C)nn3c(C)c(C(=O)Nc4cc(C)cc(C)c4)cnc23)cc1OCC -6.3%
COc1ccccc1N1CCN(S(=O)(=O)c2c(C)nc3sccn3c2=O)CC1 -7.31%
Cc1cc(C)c2sc(N3CCN(C(=O)c4ccc(N(C)C)cc4)CC3)nc2c1 0%
CCCCCCCCCCCCCCCCCC(=O)OCC(O)CO (configuration not stated) 2.93%
CC(C)c1nn2c(=O)cc(COC(=O)c3ccco3)nc2s1 0.48%
COc1ccc(N2C(=O)CSC23C(=O)N(CC(=O)NCCc2ccccc2)c2ccccc23)cc1 (configuration not stated) -4.24%
O=C(CSc1nc(=O)[nH]c2c1CCCC2)NCc1ccccc1 -6.08%
COc1ccccc1C(=O)Nc1ccc(C(=O)OCc2cc(=O)n3nc(C4CC4)sc3n2)cc1 -16.7%
Cc1nn2c(C)c(C(=O)NC(C)(C)C)cnc2c1-c1ccc(F)cc1 -11.4%
Cc1ccc(N2CC(NC(=O)c3cc4ccccc4o3)CC2=O)cc1 (configuration not stated) -15.2%
COc1ccc(NC(=O)Cn2c(=O)n(Cc3ccccc3)c(=O)c3sc4ccccc4c32)cc1 -6.13%
CCCCNC(=O)c1cc2n(n1)CCCN(Cc1ccc(C)cc1)C2=O -10.3%
CCOc1ccc(C(=O)Nc2ccc3oc(-c4ccc5ccccc5c4)nc3c2)cc1 15.6%
CCc1ccc(Cn2c(CNS(=O)(=O)c3ccc(C)c(C)c3)nc3cccnc32)cc1 -5.78%
CCCCN(C)CCNC(=O)c1cc2c(=O)n(C)c3ccccc3c2n1C 10.6%
COc1ccc(CNC(=O)CCc2c(C)c3cc4c(C)coc4c(C)c3oc2=O)cc1OC -9.77%
CN1C(=O)c2ccccc2Sc2ccc(NC(=O)c3ccc(C(F)(F)F)cc3)cc21 -21.4%
N#Cc1ccccc1NS(=O)(=O)c1ccc(N2CCCCS2(=O)=O)cc1 -7.44%
CCCc1nn2c(=O)cc(COC(=O)c3ccc(NC(=O)COc4ccccc4)cc3)nc2s1 -9.37%
CCC(Oc1ccc(F)cc1)C(=O)Nc1c(C(=O)c2ccc(C)cc2)oc2ccccc12 (configuration not stated) 9.78%
CCn1cc(C(=O)N2CCN(c3ccccc3)CC2)c(=O)c2cc(S(=O)(=O)N3CCOCC3)ccc21 -0.469%
COc1ccc(-c2nc3scc(CCNS(=O)(=O)c4ccc(F)cc4C)n3n2)cc1 -26.7%
COC(=O)c1cc2oc3ccccc3c2n1Cc1ccc(Cl)cc1 -5.13%
CCN(CC)CCNC(=O)c1cc2c(=O)n(C)c3cc(Cl)ccc3c2s1 -2.11%
CCOC(=O)c1[nH]c(C)c(CCC(=O)NCc2ccc(CC)cc2)c1C -26.4%
COc1cccc(CN2c3ccccc3-c3nc(SCC(=O)Nc4ccccc4Cl)ncc3S2(=O)=O)c1 -36.1%
Cc1ccc(-c2ccc(=O)n(CCC(=O)NCCc3ccccc3)n2)cc1 4.32%
COc1ccc(NC(=O)c2ccc3nc(C(C)C)oc3c2)cc1OC -1.49%
COc1ccc(N(C)C(=O)c2cn(C)c(=O)c3cc(OC)c(OC)cc23)cc1 -4.06%
Cc1ccc(Cn2c(CO)cnc2SCC(=O)Nc2ccc(C)c(Cl)c2)cc1 -23.7%
COc1ccc(NC(=O)Cn2cc(S(=O)(=O)c3ccccc3)c(=O)c3cc4c(cc32)OCO4)cc1 -11.8%
CCN1CCc2c(sc(-n3cccc3)c2C(C)NC(=O)Nc2ccc(Br)cc2)C1 (configuration not stated) -19.9%
CCCC(=O)OCc1cnc(C)c2oc(=O)c(C(=O)Nc3cccc(C(F)(F)F)c3)cc12 -4.63%
CON=C(C(=O)N[C@@H]1C(=O)N2C(C(=O)OCOC(=O)C(C)(C)C)=C(C=Cc3scnc3C)CS[C@H]12)c1csc(N)n1 9.02%
Cc1c(C(=O)Nc2ccccc2)sc2nc(-c3cc4cc(Cl)ccc4oc3=O)[nH]c(=O)c12 1.15%
CCC(=O)Nc1ccccc1-c1nc2ccccc2n(CC(=O)Nc2ccccc2OC)c1=O -23.5%
Cc1ccccc1C(=O)Nc1ccc2nc(N3CCCCC3)cc(C)c2c1 14.3%
